# Laboratory results reported in PubChem BioAssay AID2546 (National Center for Advancing Translational Sciences (NCATS), 2010).
# In all, about 310,000 compounds went through this assay and about 11,000 (3.5%) were called active. The shares of active, inactive and inconclusive entries below differ from those in the screen. The call rests on the fitted dose curve; in most records, active means well fitted inhibition curve with a large enough effect; inconclusive means small, poorly fitted or top-dose-only effect, or effect the other way; inactive means flat fitted curve, though single readings scatter. No potency is given beside an inconclusive call; the fits are too rough.
# Experiment: VP16 counterscreen qHTS for inhibitors of ROR gamma transcriptional activity;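 further: Gal4-VP16 expression switched on by copper sulfate through the metallothionein promoter; nearly all actives have a fitted effect of over 50% in size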
# Settings: Drosophila S2 Gal4-VP16 UAS-luciferase, luminescence, 20 h; activity, negative = inhibition: at 53.6 µM (top of the series)
# On the % scale 0 is the no-effect control and ±100 the full control effect; potency means the concentration at half of the fitted maximal effect; tags describe the fitted curve by direction and shape.
Compound,Potency,"activity, negative = inhibition"
C=CCSc1ncnc2c1oc1nc3c(cc12)COC(C)(C)C3,"inconclusive [activator, full curve]",
COC(=O)c1cc(NC(=O)Nc2cccc(Cl)c2)ccc1Cl,"inconclusive [inhibitor, single point]",
CC(C)NC(=S)NN=C1CCC(c2ccccc2)CC1 (stereo not given),active: 11.2 µM,
COc1ccc(C2CC(c3cccs3)=NN2C(=O)CSc2nc3ccccc3s2)cc1 (stereo not given),"inconclusive [inhibitor, single point]",
Cc1cc(C)nc(SCC(=O)c2ccc(F)c(C)c2)n1,"inconclusive [activator, single point]",
N#CC(C(=O)Nc1ccc(Cl)cc1)=C1Nc2ccccc2N1,"inconclusive [inhibitor, single point]",
CNc1cc2c(Nc3cccc(Br)c3)ncnc2cn1,active: 12.6 µM,
CCOC(=O)N1CCN(C(=O)CCl)CC1,"inconclusive [inhibitor, single point]",
O=C(O)c1ccccc1-c1cn2cc(Cl)ccc2n1,"inconclusive [inhibitor, single point]",
COC(=O)/C(=N/Nc1ccccc1)N1CCCc2ccccc21,,inactive: 1.03%
O=C(COC(=O)c1cccc(Br)c1)NCCc1ccc(F)cc1,"inconclusive [inhibitor, partial curve, poor fit]",
CC(=O)Nc1cccc(-c2cn3ccc(C)cc3n2)c1,"inconclusive [inhibitor, partial curve, poor fit]",
COc1ccc2[nH]cc(CCNC(=S)NC3CCCC3)c2c1,"inconclusive [inhibitor, single point]",
COc1ccc(CCNc2nnc(Sc3nnnn3-c3ccccc3)s2)cc1OC,,inactive: 8.74% [at 0.365 µM]
O=C(Cc1c[nH]c2ccccc12)N1CCc2ccccc21,,inactive: -2.44%
O=[N+]([O-])c1cccc(/C=N\N2CCN(c3ccc(Cl)cc3)CC2)c1,"inconclusive [activator, partial curve]",
N#C/C(=C\c1ccc(O)c(O)c1)C(=O)Nc1ccccc1,"inconclusive [inhibitor, single point]",
Cc1ccc(C(=O)Nc2ccc(C(=O)N/N=C/c3ccccn3)cc2)cc1,"inconclusive [inhibitor, partial curve]",
CCOc1cccc(/C=N/NC(=O)CC2C(=O)NN=C2C)c1O (stereo not given),"inconclusive [inhibitor, single point]",
CCC(C)NCCOCCOc1ccc(C)cc1OC (stereo not given),,inactive: -1.19%
Nn1c(SCc2ccccc2)nc2c(cnn2-c2ccccc2)c1=O,"inconclusive [activator, full curve, poor fit]",
CCOC(=O)c1c(C)[nH]c(=S)c(C#N)c1-c1ccc(Cl)cc1,"inconclusive [inhibitor, single point]",
Cc1cccc(Cc2c(C)nc3c(C(=O)NCc4ccco4)cnn3c2C)c1,"inconclusive [inhibitor, single point]",
CS(=O)(=O)N(Cc1ccccc1)c1ccc(C(=O)NCCSCc2ccco2)cc1,"inconclusive [activator, full curve]",

Compound,Potency,"activity, negative = inhibition"
CCc1ccc(Nc2nnc(SC3CCOC3=O)s2)cc1 (stereo not given),"inconclusive [inhibitor, single point]",
COc1ccc(C(=O)NCC(=O)N2CCN(c3ccccc3)CC2)cc1,,inactive: -3.49%
O=C(CCCCCn1c(=S)[nH]c2ccc(N3CCOCC3)cc2c1=O)NCc1ccccc1,"inconclusive [inhibitor, single point]",
Cc1ccc(CSc2nnc(SCC(=O)N/N=C/c3ccccc3OCC(=O)O)s2)cc1,"inconclusive [inhibitor, partial curve]",
O=C(Cn1cc2c(n1)CCCC2)N1CCc2ccccc21,"inconclusive [activator, single point]",
CCOc1ccccc1C(=O)Nc1ccc(C(=O)c2ccccc2)cc1,,inactive: -3.16%
Nc1c(C(=O)N2CCOCC2)sc2nc3c(cc12)CCC3,"inconclusive [inhibitor, single point]",
Cc1ccc(-c2noc(CCC(=O)Nc3ccccc3C)n2)cc1,"inconclusive [inhibitor, partial curve]",
CCOc1cccc(-c2nnc3sc(C4CCCCC4)nn23)c1,"inconclusive [inhibitor, single point]",
CCOC(=O)c1sc(Nc2nc3c(OC)cccc3s2)cc1C,"inconclusive [inhibitor, single point]",
Cc1cc(N2CCN(C(=O)c3ccco3)CC2)n2ncc(-c3ccccc3)c2n1,"inconclusive [inhibitor, single point]",
COc1ccc(-c2cc(C(F)(F)F)nc(S(=O)(=O)CCC(=O)N3CCOCC3)n2)cc1,"inconclusive [inhibitor, single point]",
CC(C)N1CSC(=S)N(Cc2ccccc2)C1,,inactive: 1.81%
Cn1c(C(=O)N2CCC(C(=O)N3CCN(Cc4ccc5c(c4)OCO5)CC3)CC2)cc2sccc21,"inconclusive [inhibitor, single point]",
O=C(CN(CC1CCCO1)C(=O)CNS(=O)(=O)c1ccc(Cl)cc1)NCc1ccccc1 (stereo not given),,inactive: -2.89%
C/C(=N\Nc1ncc(Cl)cc1Cl)c1ccc(OC(F)F)cc1,"inconclusive [inhibitor, single point]",
Cc1ccc(NC(=O)c2sc3nc(CCl)[nH]c(=O)c3c2C)c(C)c1,"inconclusive [activator, full curve]",
CN1C(=O)NC(c2ccccc2)(C(F)(F)F)S/C1=C(/C#N)c1nnc(N2CCOCC2)n1-c1ccccc1 (stereo not given),"inconclusive [inhibitor, single point]",
Oc1ccc(-c2csc(-c3ccccc3)n2)cc1O,"inconclusive [inhibitor, single point]",
COc1ccc2oc(C(=O)NC3CCCCC3)c(C)c2c1,"inconclusive [activator, partial curve, poor fit]",
c1ccc(-c2nnc3sc(-c4csc5c4CCCC5)nn23)cc1,"inconclusive [inhibitor, full curve]",
COC(=O)c1sccc1NC(=O)Nc1ccc(C)c(C)c1,"inconclusive [inhibitor, single point]",
CC(=O)OCCSc1c(-c2ccccc2)c2cc(Cl)ccc2[nH]c1=O,"inconclusive [inhibitor, single point]",
COc1ccccc1-c1cn[nH]c(=S)n1,"inconclusive [inhibitor, single point]",

Compound,Potency,"activity, negative = inhibition"
C=CCN1C(=O)C(CCCC)NC1=S (stereo not given),"inconclusive [inhibitor, single point]",
CC(C)Cc1nc2oc3c(=O)[nH]cnc3c2c2c1CCC2,,inactive: -10.6%
Cc1ccc(S(=O)(=O)N(C)CC(=O)N2CCCCCC2)cc1,,inactive: -13.9%
COc1cccc(/C=N/n2c(-c3cc(C)[nH]n3)n[nH]c2=S)c1OC,,inactive: 0.435%
COc1cc(OC)cc(C(=O)N[C@H](C(=O)Nc2nc3ccccc3[nH]2)C(C)C)c1,"inconclusive [inhibitor, single point]",
O=C(/C=C/c1ccccc1)NC(=S)Nc1ccc(CN2CCOCC2)cc1,"inconclusive [inhibitor, single point]",
Cc1ccc(C(=O)O/N=C2\CC3CCC2(C)C3(C)C)cc1 (stereo not given),"inconclusive [inhibitor, partial curve]",
COc1ccc2nc(Cl)c(/C=N/Nc3ccccn3)cc2c1,"inconclusive [inhibitor, single point]",
O=C(CN1C(=O)c2ccccc2S1(=O)=O)c1ccccc1Cl,"inconclusive [inhibitor, single point]",
N/C(=N\c1nc2c(c(=O)[nH]1)CCC2)Nc1cccc(Cl)c1,"inconclusive [inhibitor, partial curve]",
COc1cccc(C(=O)N=c2sc3cc(S(C)(=O)=O)ccc3n2C)c1,"inconclusive [inhibitor, single point]",
CS(=O)(=O)c1nc(-c2ccco2)cc(C(F)(F)F)n1,active: 2.82 µM,
O=C(N/N=C\c1ccccn1)C1COc2cc3ccccc3cc2O1 (stereo not given),"inconclusive [inhibitor, single point]",
CC1(C)Cc2c(cnn2-c2ccc(F)cc2)C(NC(=O)C2CCC2)C1 (stereo not given),,inactive: -4.65%
Cc1cc(NC(=O)Nc2cccc(C(F)(F)F)c2)no1,,inactive: 3.47%
Cc1ccc(C(=O)NC(=S)Nc2ccc(N3CCN(C(=O)c4ccco4)CC3)cc2)cc1,active: 5.62 µM,
CN1/C(=C/C(=O)c2cccs2)Sc2ccccc21,"inconclusive [inhibitor, full curve]",
COc1ccc(/C=N\NC(=O)C2=NNC(=O)C2C)cc1 (stereo not given),active: 3.16 µM,
S=C(NCc1cccs1)NCC1CCCO1 (stereo not given),"inconclusive [inhibitor, single point]",
Cc1ccc2c(Cl)cc(Cl)c(OCC(=O)Nc3cccc(S(N)(=O)=O)c3)c2n1,"inconclusive [inhibitor, single point]",
Cc1ccc(-c2cc(C(=O)NCC3CCCO3)no2)cc1 (stereo not given),"inconclusive [inhibitor, partial curve]",
Cc1cccc(NC(=O)C2CC(=O)n3cnnc3S2)c1 (stereo not given),"inconclusive [inhibitor, single point]",
